# Assay results as given in PMC4336329 (PLoS ONE, 2015).
# Among all 310,000 compounds or so, about 14,000 (4.5%) showed an effect of 50% or more. The effect is printed as a negative number. The list shows a part of the results.
# Biological target: human ether-à-go-go-related gene (hERG) potassium channel (human, UniProt Q12809)
# Test: primary screen, population patch clamp on CHO cells stably expressing hERG
# 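Also: peak tail current of the secondary pulse compared with the same well before compound.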
# Sequence of human ether-à-go-go-related gene (hERG) potassium channel (Q12809 whole entry, looked up): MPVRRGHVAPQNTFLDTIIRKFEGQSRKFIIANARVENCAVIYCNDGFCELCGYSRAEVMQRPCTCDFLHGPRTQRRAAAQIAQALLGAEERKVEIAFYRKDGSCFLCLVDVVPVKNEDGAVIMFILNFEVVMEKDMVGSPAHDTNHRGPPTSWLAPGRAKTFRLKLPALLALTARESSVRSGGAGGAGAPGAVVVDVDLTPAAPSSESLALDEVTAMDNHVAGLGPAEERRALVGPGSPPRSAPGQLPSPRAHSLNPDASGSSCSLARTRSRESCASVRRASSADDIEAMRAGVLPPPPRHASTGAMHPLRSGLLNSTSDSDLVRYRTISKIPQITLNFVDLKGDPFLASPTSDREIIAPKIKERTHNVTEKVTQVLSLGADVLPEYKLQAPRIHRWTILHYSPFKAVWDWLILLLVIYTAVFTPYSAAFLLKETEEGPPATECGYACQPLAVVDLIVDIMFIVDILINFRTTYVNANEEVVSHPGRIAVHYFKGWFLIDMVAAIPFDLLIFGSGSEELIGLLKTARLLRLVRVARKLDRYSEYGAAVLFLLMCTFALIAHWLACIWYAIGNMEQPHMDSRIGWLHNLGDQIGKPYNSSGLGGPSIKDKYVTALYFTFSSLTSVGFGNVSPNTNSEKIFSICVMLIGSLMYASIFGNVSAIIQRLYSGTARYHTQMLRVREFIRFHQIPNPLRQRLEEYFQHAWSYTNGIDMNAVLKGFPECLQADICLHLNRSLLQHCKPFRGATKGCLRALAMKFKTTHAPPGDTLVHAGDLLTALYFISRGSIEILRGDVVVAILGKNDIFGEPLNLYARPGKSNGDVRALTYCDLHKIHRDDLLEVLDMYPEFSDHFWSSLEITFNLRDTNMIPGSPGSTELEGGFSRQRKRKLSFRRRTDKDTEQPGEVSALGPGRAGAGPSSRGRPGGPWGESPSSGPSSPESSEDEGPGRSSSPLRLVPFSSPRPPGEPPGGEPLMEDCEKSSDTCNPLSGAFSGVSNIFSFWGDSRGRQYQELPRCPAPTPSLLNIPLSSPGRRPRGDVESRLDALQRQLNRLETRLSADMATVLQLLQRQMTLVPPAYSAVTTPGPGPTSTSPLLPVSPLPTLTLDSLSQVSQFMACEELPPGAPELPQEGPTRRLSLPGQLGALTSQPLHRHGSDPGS
row,SMILES,"hERG current change (%, negative = inhibition) at 10uM [%]"
1,COc1ccc(C(=O)CCN2CCCC(C)C2)cc1.Cl (stereo not shown),-26.2
2,COC(=O)C1=C(C)NC2=C(C(=O)C(C(=O)OC)C(c3ccc(OC)cc3)C2)C1c1ccccn1 (stereo not shown),-7.27
3,COc1ccc(C(=O)OCc2cc(=O)n3c(C)csc3n2)cc1F,-2.77
4,CCOC(=O)c1c(NC(=O)CSc2nnc(CNc3ccc(OC)cc3)n2C)sc(C)c1C,-21.7
5,COCc1nnc(NC(=O)CC(C)c2ccccc2)s1 (stereo not shown),18.7
6,CCOC(=O)Cn1nc(NC(=O)COc2ccc(F)cc2)cc1C,-0.548
7,CC1CCCC(NC(=O)C2CCN(C(=O)Nc3ccccc3)CC2)C1C (stereo not shown),-3.13
8,CCOc1ccc(C(=O)NCCc2cnc[nH]2)cc1,8.02
9,COc1cccc(CN2CCNC(=O)C2CC(=O)N2CCOc3ccccc3C2)c1OC (stereo not shown),7.79
10,c1ccc2c(CNC3CCCCC3)c[nH]c2c1,-20.7
11,CCCNC(=O)COC(=O)/C=C/c1ccco1,2.96
12,COc1ccc(S(=O)(=O)N2CCCCCC2)cc1C(=O)OCC(=O)Nc1cc(C)on1,9.6
13,CC(=O)N/C(=C\c1ccc(F)cc1)C(=O)NC(Cc1c[nH]c2ccccc12)C(=O)O (stereo not shown),-8.16
14,Cc1cc(C)c(C#N)c(N2CCCC2)n1,5.67
15,O=C1/C(=C/c2ccc3c(c2)OCO3)Oc2cc(OCC(=O)N3CCC[C@H]3C(=O)O)ccc21,9.16
16,C/C(=N\Nc1ccccc1)c1c(O)cc(C)oc1=O,20.8
17,COc1cccc(NC(=O)CN2C(=O)NC(CCc3ccccc3)C2=O)c1 (stereo not shown),-7.13
18,C=CCNc1sc(C(=O)C2CC2)c(N)c1C#N,-16.5
19,OC(CN1CCCCC1)c1c[nH]c2ccccc12 (stereo not shown),6.4
20,COCCNC(=O)c1cccc(OC2CCN(Cc3ccc(OC(F)F)cc3)CC2)c1,-73.5

row,SMILES,"hERG current change (%, negative = inhibition) at 10uM [%]"
1,Cc1cc(OCC(=O)NCCN2CCOCC2)cc(C)c1Cl,2.78
2,CCOC(=O)C1CCN(C(c2cc3ccc(C)c(C)c3[nH]c2=O)c2nnnn2C2CCCCC2)CC1 (stereo not shown),2.13
3,Cn1ccnc1C(O)(c1ccccc1)c1ccccc1,3.78
4,N#Cc1ccc(-c2csc(-c3ccno3)n2)cc1,-14.6
5,CCOC(=O)NC(=O)/C(C=Nc1ccc(Cl)c(Cl)c1Cl)=C(\C)O,8.2
6,CSc1ccccc1OCc1cc(C(=O)NC2CCc3ccccc32)no1 (stereo not shown),19.6
7,O=C(Nc1ccccc1Cl)O/N=C/c1ccncc1,-4.2
8,O=C(OCc1cccc(C(F)(F)F)c1)c1ccc[nH]c1=O,7.91
9,Cc1nc(CSc2ccc(Cl)cc2)cc(N2CC(C)OC(C)C2)n1 (stereo not shown),-4.52
10,CCOc1ccccc1N(CC(=O)NC1CCCCC1)S(C)(=O)=O,4.57
11,COC(=O)c1cnc(Oc2c(Cl)cc(N)cc2Cl)cc1C(F)(F)F,4.01
12,CCOc1cccc(CN(C)CC2CCCN(CCc3ccc(Cl)cc3)C2)c1O (stereo not shown),-69.7
13,CCCCC(=O)Nc1nnc(SCC(=O)N2CCN(c3ccccc3OC)CC2)s1,8.63
14,CSc1c(C#N)c(N)nc2sc(C(=O)c3ccc(Cl)c(Cl)c3)c(N)c12,1.87
15,O=C(NCCOc1ccccc1F)C1CCC(=O)N(CCc2cccc(F)c2)C1 (stereo not shown),-35.8
16,CCN(c1ccccc1C)S(=O)(=O)c1cc2c3c(c1)CCC(=O)N3CCC2,-11.2
17,O=C(/C=C/c1ccccn1)c1ccc(Br)cc1O,16.9
18,COC(=O)c1cc(=O)n(CCc2ccccc2)c(=Nc2ccc(F)cc2)s1,16.7
19,O=C1NC(=S)N/C1=C/c1cccc([N+](=O)[O-])c1O,7.66
20,Cc1ccc(NC(=O)CC(C)S(=O)(=O)c2ccc3c(c2)NC(=O)CO3)cc1C (stereo not shown),7.73

row,SMILES,"hERG current change (%, negative = inhibition) at 10uM [%]"
1,COc1ccc(/C=C/C(=O)O)cc1S(=O)(=O)N1CCCC1,2.45
2,COc1cc(S(=O)(=O)Nc2cccnc2)ccc1Cl,2.14
3,COc1ccc(N2CC(C(=O)Nc3ccc(S(=O)(=O)Nc4nc(C)cc(C)n4)cc3)CC2=O)cc1 (stereo not shown),7.84
4,O=C1N=C(c2ccccc2)C(c2ccccc2)N1 (stereo not shown),-6.89
5,CCN1C(=O)S/C(=C/c2ccc(Sc3nc4ccccc4[nH]3)o2)C1=O,8.34
6,O=C(Nc1nnc(CC2=CCCCC2)s1)Nc1ccccc1F,4.93
7,CC(=O)Nc1ccc(NC(=O)c2ccc3c(c2)CCN3S(C)(=O)=O)cc1,16.3
8,CCCCC12CN3CCN(CC(C3)/C1=N\NC(=O)Nc1ccccc1)C2,-32.5
9,COC(=O)c1ccc(NC(=O)CO/N=C2\CCCc3nonc32)cc1,-4.31
10,COc1cc(Cl)c(C)cc1NC(=O)CN1C(=O)C2CCCCC2C1=O (stereo not shown),-8.62
11,Cc1[nH][nH]c(=O)c1C=NCc1cccnc1,23.6
12,Cc1cccc(-n2cc(-c3ccccc3)[nH]c2=S)c1,4.11
13,Cc1nc2c(ncn2-c2ccccc2)c(=O)n1NC(=O)CN1CCOCC1,14.4
14,CN(C)CCCNc1ccc(S(N)(=O)=O)cc1[N+](=O)[O-],-13.1
15,Cc1cc(/C=C2\SC(=O)N(C)C2=O)c(C)n1-c1cccc(C(=O)O)c1,17.9
16,CCOC(=O)c1sc(NC(=O)CCc2ccc(OC)cc2)nc1C,24.5
17,CCC(C)NC(=O)/C=C/c1ccc(S(=O)(=O)NCc2ccco2)cc1 (stereo not shown),-4.31
18,CCOc1ccc(C(=O)CC(=O)C(=O)NCCc2ccc(OC)c(OC)c2)cc1,-10
